Assay results reported in the supplement of paper PMC3724861.
Some of the results follow.

Test system: T1, Caupolican (Caup) homeodomain DNA-binding domain
T1 sequence: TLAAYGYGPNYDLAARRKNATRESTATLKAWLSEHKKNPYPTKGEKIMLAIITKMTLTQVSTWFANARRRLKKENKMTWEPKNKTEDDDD
Assay: PBM E-score (8-mer, recovered from the published 9-mer minima) (E-score (dimensionless, -0.5 to 0.5)); Drosophila protein; higher = stronger relative binding preference, active = 0.31 or more
Method: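 Protein binding microarray (PBM): in vitro transcribed/translated Caupolican (Caup) homeodomain DNA-binding domain (residues 214-303) applied at 100 nM to a universal 8-mer PBM array (Agilent AMADID 015681). The 8-mer enrichment score (E-score, range -0.5 to 0.5) was computed, and each 9-mer score is the minimum E-score of its two constituent 8-mers. The E-score is the same for a 9-mer and its reverse complement; 0.31 is the stated binding threshold.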

Sequence	PBM E-score
ATATCCTC	inactive: 0.00247
AGGGTGAC	inactive: -0.144
CTATATCC	inactive: -0.0149
GACCTTAA	inactive: -0.0126
AGGGTGAG	inactive: -0.214
CAACTTGG	inactive: -0.014
AGAGTACT	inactive: 0.00038
CGACATTC	inactive: 0.191
GTAATCAA	inactive: 0.2
CTATTCGC	inactive: -0.0183
GAGGTACA	active: 0.326
AAGGGGTC	≥ -0.0704
GCAGACGC	inactive: -0.18
AACTGAAT	inactive: 0.0483
CTCGTCGA	inactive: -0.0232
GCCTCCCC	inactive: -0.269
AACTATCT	inactive: 0.0956
CCCCCTGC	inactive: -0.299
CTGAGCAC	inactive: 0.0158
AGTCCTGC	inactive: -0.00191
AGGTGGAA	inactive: 0.046
CCTATAAG	inactive: -0.0649
ACAGATCC	inactive: 0.0587
ACAAGTCG	inactive: 0.205

Sequence	PBM E-score
AAACACGT	active: 0.312
AGTTTAGA	inactive: 0.0189
AGGCACTA	inactive: -0.0995
AGGATACC	inactive: -0.0619
AGCTAGCG	inactive: -0.204
ATACGTCC	inactive: -0.086
AATCAATT	inactive: 0.127
AATTCTAG	inactive: 0.0641
CTCGGCAA	inactive: -0.0797
ACCGAAGA	≥ 0.00377
CAAGCAAC	inactive: 0.0807
CTTTATCC	inactive: -0.0399
GTAACGTA	inactive: 0.198
ATTGGCTA	inactive: -0.0305
CTCTGGCC	inactive: -0.252
ATGATACG	inactive: 0.144
GTGACCAA	inactive: -0.00763
GAACCCAC	inactive: -0.108
TGTACCAA	active: 0.312
ACCGGCCG	inactive: -0.188
AGATTTCG	inactive: -0.0539
CATTTCTA	inactive: 0.102
AGAGTTGA	inactive: -0.0246
GAAGTCCC	inactive: -0.213

Sequence	PBM E-score
GACGGGAA	inactive: -0.0636
TATGACCA	≥ 0.135
CGTGTAAG	active: 0.333
CCCAGGAC	inactive: -0.118
GCGTGCCA	inactive: -0.16
ATACTATC	inactive: 0.162
GATTCCAA	inactive: -0.0321
CCTCCGTC	inactive: -0.155
GAAGTGTA	inactive: 0.0941
ACGCTATC	inactive: -0.0224
AGTAGACG	inactive: 0.0495
AATACTAC	inactive: 0.207
ACAGGACG	inactive: 0.0904
GTTTAAAC	inactive: 0.193
GTAACGGA	inactive: 0.13
AAGAGCTT	inactive: -0.121
GTAAGGAC	inactive: 0.0555
ATAGAAAC	inactive: 0.105
CCGGTACC	inactive: -0.0922
AACGTATC	inactive: 0.0542
AGGTCTGC	inactive: -0.215
AACTGGAG	inactive: -0.105
